# From the supplement of paper PMC4967469
# Lines with a small IC50 respond at low doses; a limit (>, <) means that the fit lies beyond the doses tested. AUC sums up the same curve from the lowest dose to the 256-fold higher top dose; it is 1 without any effect and falls as sensitivity rises. For some assays here: Where the top dose is marked as inferred, it comes from the curve model; the source does not state it. For some assays here: Drugs with an entry number were screened twice under separate entries, and the two screens often disagree.
# Legend:
# Test in all cases: Viability of human cancer cell lines after 72 h of drug (GDSC screen)
# [1] = compound: CC(=O)O[C@@]12CO[C@@H]1C[C@H](O)[C@@]1(C)C(=O)[C@H](O)C3=C(C)[C@@H](OC(=O)[C@H](O)[C@@H](NC(=O)OC(C)(C)C)c4ccccc4)C[C@@](O)([C@@H](OC(=O)c4ccccc4)[C@H]21)C3(C)C [Docetaxel]; details: top dose 0.0125 µM
# Description: (§1)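 Human cancer cell lines in 384-well plates, medium with 10% serum, drug for 72 h over a 256-fold dose range (nine 2-fold or five 4-fold steps up to the top dose). Adherent lines were fixed and stained with the nucleic acid dye Syto60, suspension lines read with resazurin; signal relative to control wells, capped at 0 and 100%. One two-parameter sigmoid per drug and line, fitted in a mixed model over all curves with the slope shared within a line.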
# [2] = compound: CN1CCN(c2ccc([N+](=O)[O-])c3no[n+]([O-])c23)CC1 [NSC-207895]; details: top dose 20 µM; top dose inferred
# Description: as §1
# [3] = compound: COC(=O)[C@H](CCSC)NC(=O)c1ccc(NC[C@@H](N)CS)cc1-c1ccccc1 [FTI-277]; details: top dose 1.024 µM; top dose inferred
# Description: as §1
# [4] = compound: COCC[n+]1c2c(n(Cc3cnccn3)c1C)C(=O)c1ccccc1C2=O [YM155]; details: top dose 5.12 µM
# Description: as §1
# [5] = compound: C[C@]1(O)C[C@@H](c2nc(-c3ccc4ccc(-c5ccccc5)nc4c3)c3c(N)nccn32)C1 [OSI-906]; details: top dose 2.56 µM; top dose inferred
# Description: as §1
# [6] = compound: Cc1ccc(C(=O)N(CCCN)[C@@H](c2nc3cc(Cl)ccc3c(=O)n2Cc2ccccc2)C(C)C)cc1 [SB-715992]; details: top dose 0.128 µM; top dose inferred
# Description: as §1
# [7] = compound: Cc1sc2c(c1C)C(c1ccc(Cl)cc1)=N[C@@H](CC(=O)OC(C)(C)C)c1nnc(C)n1-2 [JQ1]
# Description: as §1
# [8] = compound: O=C(/C=C/c1cccc(S(=O)(=O)Nc2ccccc2)c1)NO [Belinostat]; details: top dose 20 µM; top dose inferred
# Description: as §1
# [9] = compound: c1ccc2c(CCNc3ccc(Nc4ccncc4)cc3)c[nH]c2c1 [JNJ-26854165]; details: top dose 10 µM
# Description: as §1
# [10] = top dose 1 µM, screen: GDSC drug entry 1218, top dose inferred
# [11] = top dose 2.56 µM, screen: GDSC drug entry 163
Cell Line,AUC [1],IC50 [1] [µM],AUC [2],IC50 [2] [µM],AUC [3],IC50 [3] [µM],AUC [4],IC50 [4] [µM],AUC [5],IC50 [5] [µM],AUC [6],IC50 [6] [µM],"AUC [7, 10]","IC50 [7, 10] [µM]","AUC [7, 11]","IC50 [7, 11] [µM]",AUC [8],IC50 [8] [µM],AUC [9],IC50 [9] [µM]
"M14 (melanoma, adherent)",0.671,0.00242,0.963,> 20,0.986,> 1.02,0.104,< 0.02,0.97,> 2.56,0.937,> 0.128,0.985,> 1,0.604,0.315,0.592,2.27,0.949,> 10
"MDA-MB-175-VII (breast, adherent)",0.945,> 0.0125,0.964,> 20,0.985,> 1.02,0.427,0.198,0.946,> 2.56,0.987,> 0.128,0.986,> 1,0.908,> 2.56,0.656,3.56,0.984,> 10
"Mewo (melanoma, adherent)",0.815,0.00866,0.962,> 20,0.977,> 1.02,0.106,< 0.02,0.981,> 2.56,0.983,> 0.128,0.979,> 1,0.96,> 2.56,0.617,2.8,0.856,> 10
"NCI-H2029 (small cell lung carcinoma, adherent)",0.976,> 0.0125,0.985,> 20,0.982,> 1.02,0.465,0.259,0.98,> 2.56,0.925,> 0.128,0.99,> 1,0.941,> 2.56,0.486,1.15,0.949,> 10
"NCI-H2122 (lung adenocarcinoma, adherent)",0.695,0.00265,0.986,> 20,0.942,> 1.02,0.439,0.22,0.547,0.213,0.948,> 0.128,0.982,> 1,0.756,0.826,0.747,6.05,0.919,> 10
"PA-TU-8988T (pancreas, adherent)",0.724,0.00339,0.984,> 20,0.983,> 1.02,0.044,< 0.02,0.977,> 2.56,0.731,0.0365,0.98,> 1,0.703,0.6,0.635,2.96,0.849,7.58
"PANC-08-13 (pancreas, adherent)",0.866,> 0.0125,0.982,> 20,0.97,> 1.02,0.092,< 0.02,0.633,0.414,0.967,> 0.128,0.978,> 1,0.7,0.693,0.728,6.78,0.902,> 10
"RMG-I (ovary, adherent)",0.919,> 0.0125,0.954,> 20,0.98,> 1.02,0.068,< 0.02,0.98,> 2.56,0.818,0.0877,0.981,> 1,0.666,0.503,0.434,0.799,–,–
"SW1990 (pancreas, adherent)",0.842,0.0112,0.981,> 20,0.976,> 1.02,0.847,4.79,0.966,> 2.56,0.978,> 0.128,0.912,> 1,0.808,1.61,0.984,> 20,0.914,> 10
"UM-UC-3 (bladder, adherent)",0.806,0.00588,0.871,16.8,0.987,> 1.02,0.034,< 0.02,0.983,> 2.56,0.7,0.028,0.985,> 1,0.944,> 2.56,0.449,0.917,0.848,6.72
"UMC-11 (lung carcinoid, adherent)",0.887,0.0114,0.964,> 20,0.991,> 1.02,0.093,< 0.02,0.99,> 2.56,0.834,0.0714,0.988,> 1,0.578,0.255,0.223,0.218,0.892,9.56
"VMRC-MELG (melanoma, adherent)",0.907,> 0.0125,0.974,> 20,0.978,> 1.02,0.28,0.0734,0.9,> 2.56,0.987,> 0.128,0.988,> 1,0.791,1.21,0.238,0.209,0.953,> 10
"VMRC-RCW (kidney, adherent)",0.965,> 0.0125,0.979,> 20,0.968,> 1.02,0.545,0.421,0.947,> 2.56,0.917,> 0.128,–,–,0.66,0.428,0.611,2.46,–,–
